# The campaign covered roughly 120,000 compounds. About 5,300 (4.4%) were called active. The shares of active, inactive and inconclusive entries below differ from those in the screen. Calls follow the shape of the dose curve; as a rule, active = well fitted inhibition curve with a large enough effect; inconclusive = small, poorly fitted or top-dose-only effect; inactive = no such curve, though single readings can be large or run the other way. Where the call is inconclusive, the potency comes from a doubtful curve fit.
# Assay: qHTS Primary assay for Inhibitors of Plasmodium falciparum Dd2 growth in vitro; also: nearly all actives have a fitted effect of over 65% in size
# Settings: P. falciparum Dd2 growth, SYBR Green, 72 h; series mostly up to 28.9 µM
# Procedure, shortened: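 Readout: SYBR Green fluorescence, 485 nm excitation, 535 nm emission, after ~16 h lysis at 37C. Before that, Dd2-infected red cells (2.5% hematocrit) grew 72 h with compound, 29 uM top final concentration.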
# Potency is read from the fitted curve at half-maximal effect; tags tell the direction and shape of the fitted curve.
row,Structure (SMILES),Potency
1,CCC(C(=O)N1CCC2(CC1)C(=O)N(CC(=O)NCC(C)C)CN2c1ccccc1)c1ccccc1 (stereo not drawn),"inconclusive: 3.98 µM [inhibitor, single point]"
2,NCc1ccc(-c2cccnc2)cc1,"inconclusive: 10 µM [inhibitor, single point]"
3,COCc1cc(C[C@@H]2C[C@H](NCc3ccco3)C2(C)C)no1,"inconclusive: 10 µM [inhibitor, single point]"
4,CCOC(=O)c1cn(C2CN(S(=O)(=O)c3cccc(Cl)c3)C2)nn1,inactive
5,CCc1cc(C(=O)N[C@@H]2COCC[C@@H]2OCc2ccccc2)cc(=O)[nH]1,inactive
6,Cn1nccc1-c1cc2c(ccn2C)c(C(=O)NCCc2cnc[nH]2)n1,inactive
7,COc1ccc(Cn2c3c(c(=O)n2Cc2ccccc2)CCN(C(=O)c2cccc(O)c2)C3)cc1,"inconclusive: 10 µM [inhibitor, single point]"
8,CCn1ccnc1CN(CC1CCN(CCc2ccccc2C)CC1)C1CCCC1,"inconclusive: 3.55 µM [inhibitor, single point]"
9,COc1ccc(-c2nc(C3CC3)nc3c2CCN(C(=O)c2ccccc2F)CC3)cc1,"inconclusive: 11.2 µM [inhibitor, partial curve, poor fit]"
10,C1CCC(CN2CCCC(c3nc(CCOCC4CCOCC4)no3)C2)CC1 (stereo not drawn),"inconclusive: 8.91 µM [inhibitor, single point]"
11,O=C(c1csc(-c2cccs2)n1)N1CCCC1c1nc2ccccc2[nH]1 (stereo not drawn),inactive
12,CCc1noc(-c2cccn3c(CNC(=O)c4ccccc4)nnc23)n1,"inconclusive: 5.01 µM [inhibitor, partial curve, poor fit]"
13,COc1ccccc1CCNC(=O)C(=O)NCC(c1cccs1)S(=O)(=O)c1ccccc1 (stereo not drawn),"inconclusive: 17.8 µM [inhibitor, single point]"
14,Cc1cc(C)c(Cn2c3ccccc3c3cnn(CC(=O)NCc4ccccn4)c(=O)c32)c(C)c1,active: 10 µM
15,Cc1cc(C)c(NC(=O)CN2C(=O)c3cccnc3Oc3ccc(C)cc32)c(C)c1,"inconclusive: 6.31 µM [inhibitor, partial curve, poor fit]"
16,CCN1CCN(C(=O)Cn2ncc3c4ccccc4n(Cc4ccccc4)c3c2=O)CC1,"inconclusive: 15.8 µM [inhibitor, single point]"
17,Cc1ccc(C(c2ccccc2)c2c(C)[nH]c3ccccc23)s1 (stereo not drawn),"inconclusive: 11.2 µM [inhibitor, single point]"
18,CCc1nc2c(=O)n(CC(=O)NCc3ccc(F)cc3Cl)nc(C)c2s1,inactive

# — PubChem BioAssay AID1347417 (National Center for Advancing Translational Sciences (NCATS), 2020)
